Results taken from PubChem BioAssay AID1240 (Sanford-Burnham Center for Chemical Genomics, 2008).
The campaign covered roughly 50,000 compounds. About 800 (1.6%) showed an effect of 50% or more. This is one part of the list.

target: Bcl-2-like protein 10 (Homo sapiens) (UniProt Q9HD36); assay: TR3 peptide-Bcl-B binding displacers, biochemical primary FP assay, phenotype converters (AID 1240); conditions: GST-Bcl-B / FITC-TR3 peptide fluorescence polarization; stronger effect = higher value; compound at 3.75 mg/L;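 note: 0% = Bcl-B with tracer peptide and DMSO and 100% = tracer peptide lacking Bcl-B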
UniProt Q9HD36, sequence (Q9HD36 whole entry, looked up): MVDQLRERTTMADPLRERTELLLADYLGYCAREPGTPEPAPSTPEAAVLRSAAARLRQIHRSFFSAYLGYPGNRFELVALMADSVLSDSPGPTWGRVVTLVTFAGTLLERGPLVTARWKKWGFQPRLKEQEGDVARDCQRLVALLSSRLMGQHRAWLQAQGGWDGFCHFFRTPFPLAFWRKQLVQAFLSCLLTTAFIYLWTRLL

| SMILES | displacement [%] |
| --- | --- |
| NC(=O)SCC(=O)Nc1cccc(Cl)c1 | 5.1 |
| CCc1ccc(N2N=C(C)/C(=C\c3cc(Br)c(O)c(OC)c3)C2=O)cc1 | 14 |
| CCN(CC)c1ccc(/C=C/C(=O)C23CC4CC(CC(C4)C2)C3)cc1 | -6.1 |
| COc1cccc(NC(=O)COc2ccc(C)cc2C)c1 | 10.9 |
| O=C(O)CN1C(=O)/C(=C/c2c(Cl)cccc2Cl)SC1=S | 9.9 |
| CN(c1ccccc1)c1ccc(/C=C2/C(=O)ON=C2c2ccc([N+](=O)[O-])cc2)cc1 | -1.7 |
| Cc1cc(C)nc(SCC(O)COCc2ccccc2)n1 (configuration not stated) | 0 |
| COc1cccc(NC2=C(Cl)C(=O)N(c3ccccc3C)C2=O)c1 | 3.7 |
| Cc1nc(SCC(=O)c2ccccc2)c(C#N)c(-c2cccc(Cl)c2)c1C(=O)Nc1ccccc1 | 2.8 |
| CN1CCN(NC(=O)c2ccc(Cl)cc2[N+](=O)[O-])CC1 | -5.8 |
| COc1cc(C(=O)NC(NC(=S)Nc2ccc(NC(C)=O)cc2)C(Cl)(Cl)Cl)cc(OC)c1OC (configuration not stated) | -9.2 |
| COc1ccc(CCNC(=O)C(=O)Nc2cc(Cl)ccc2C)cc1OC | 4.7 |
| C/C(=N\N1C(=O)c2ccccc2C1=O)c1cccc([N+](=O)[O-])c1 | -1.5 |
| C(=NN1CCN(Cc2ccccc2)CC1)c1cccc(Oc2ccccc2)c1 | 5.2 |
| CC(NC(=O)/C(CCCC#N)=N/O)c1ccccc1 (configuration not stated) | -21.5 |
| COc1cccc(C(=O)Oc2ccc3c(C)cc(=O)oc3c2)c1 | -3.7 |
| O=C(Nc1scc(-c2cccs2)c1C(=O)O)c1ccccc1I | -10.3 |
| CC(=O)N1CCN(c2ccc(NC(=O)c3cc(Cl)ccc3Cl)cc2)CC1 | 6.7 |
| N#C/C(=C\c1cccc(O)c1)C(=O)NCC1CCCO1 (configuration not stated) | -11.1 |
| COc1ccc(CNc2ccc(C)cc2Br)cc1OC | 7.9 |
| O=S(Cc1ccc(Cl)cc1)CC(O)COCc1ccc(Cl)cc1 (configuration not stated) | 7.9 |
| O=C1CSC(=S)N1/N=C/c1ccc(OCCOc2ccc(Br)cc2)cc1 | -1.9 |
| NNC(=O)c1cc(-c2cccc3ccccc23)n[nH]1 | -24.4 |

| SMILES | displacement [%] |
| --- | --- |
| Cc1[nH]c2c(ccc3ccccc32)c(=O)c1CN1CCOCC1 | -0.7 |
| NC(=O)c1ccc(NC(=O)C2COc3ccccc3O2)cc1 (configuration not stated) | 2.5 |
| Cc1ccc([N+](=O)[O-])cc1NC(=O)c1ccc(I)cc1 | 6.9 |
| O=C(COc1ccc(Cl)cc1Cl)N/N=C/CCc1ccccc1 | 21 |
| O=C(Nc1cccc2ccccc12)c1cc(-c2ccco2)nc2ccccc12 | 34.2 |
| Cc1ccccc1C(=O)NNC(=O)c1ccc(Cl)cc1 | -5.9 |
| CC(=O)c1ccc(NC(=O)c2ccc(-c3cccc(Cl)c3)o2)cc1 | 8.8 |
| O=C(COc1ccc(Cl)cc1Br)NCC1CCCO1 (configuration not stated) | -4.6 |
| CC1(C(=O)Nc2cccc3ccccc23)CCCCC1 | 3.2 |
| Cc1cc(C)c(NS(=O)(=O)c2cc(C)ccc2C)c(C)c1 | 10.3 |
| O=C(CCc1ccccc1)Nc1cc(Cl)c(Cl)cc1Cl | 14.1 |
| O=S(=O)(c1ccc(Cl)cc1)c1ccc(Oc2ccc(Cl)cc2)cc1 | -3.5 |
| CCSc1nnc(NC(=O)COc2ccccc2)s1 | 16.5 |
| CCOC(=O)c1c(-c2ccccc2)oc2ccc(OCC(=O)N(CC)CC)cc12 | 9.9 |
| COC(=O)c1ccc(/C=N/NC(=O)C2CC(=O)N(c3ccc(OC)cc3)C2)cc1 (configuration not stated) | -4.3 |
| O=c1/c(=C/c2cc(Cl)c(OCCOc3ccccc3)c(Cl)c2)sc2nc3ccccc3n12 | 18.1 |
| CC1=C(C(=O)Nc2ccccc2)C(c2ccc(Cl)cc2)C(C(=O)Nc2ccccc2)=C(C)N1 | 7.8 |
| COCCCNCCCCOc1cc(C)cc(C)c1C | -7.2 |
| COCc1cccc(N2C(=O)c3cccc([N+](=O)[O-])c3C2=O)c1 | 2.9 |
| COc1cccc(/C=C2\C(=O)NC(=O)N(c3cc(C)cc(C)c3)C2=O)c1OC | 6.3 |
| Cc1ccc(NC(=O)c2cnn(-c3ccccc3)c2NC(=O)c2ccccc2Cl)cc1C | 3.3 |
| O=C(Nc1ccc(F)cc1F)c1ccco1 | -6.6 |
| Cc1cc(-c2ccccc2)nc(N/N=C/c2ccccc2F)n1 | -3.8 |

| SMILES | displacement [%] |
| --- | --- |
| CCOc1ccccc1N1COc2ccc3ccccc3c2C1 | -3.7 |
| CCOc1ccc(-n2c(O)c(C=Nc3ccc(C)cc3)c(=O)[nH]c2=O)cc1 | -8.1 |
| Cc1ccc(C(=O)CCNc2ccccc2)o1 | 4.7 |
| Cc1ccc(C(=O)Nc2cccc(NC(=O)c3ccc(C)c(C)c3)c2)cc1 | -4.5 |
| CCn1c2ccccc2c2cc(NC(=O)C/C(C)=N/NC(=O)OCc3ccc(OC)cc3)ccc21 | -0.6 |
| CCOc1ccccc1NC(=O)C(=O)NCc1ccccc1OC | 2.8 |
| COC(=O)C1=C(C)NC(C)=C(C(=O)OC)C1c1ccc(I)cc1 | 6.1 |
| CCOc1ccc(C(=O)Nc2ccncc2)cc1 | 14.6 |
| CC(=O)Nc1ccc(S(=O)(=O)Nc2ccc(C)c(Br)c2)cc1 | -5.9 |
| CCC(C#CCN(CC)CC)OC(C)=O (configuration not stated) | 4.7 |
| COc1ccc(C(=O)/C=C/Nc2ccccc2F)cc1 | 5.6 |
| COc1ccc(C)cc1NC(=O)c1cc(-c2cccs2)nc2ccccc12 | 8.8 |
| Cc1cc(C)c(OCCCCN2CCCCC2)c(Cl)c1 | -7.1 |
| CCC(=O)Oc1cc2c(C(=O)OC)c(C)oc2cc1Br | 7.1 |
| CC(C)c1ccc(NC(=O)c2ccc(CN3CCOCC3)cc2)cc1 | -9.8 |
| CCc1nnc(NC(=O)CCCOc2ccc(Cl)cc2C)s1 | -1 |
| Cc1cc(Br)ccc1S(=O)(=O)n1ccnc1 | 5 |
| Cc1ccc(N(Cc2ccc(C(=O)N3CCCCC3)cc2)S(C)(=O)=O)cc1C | -5.9 |
| O=C(Nc1ccc(N2CCOCC2)cc1)c1ccc(-c2ccc(Cl)cc2Cl)o1 | -4.5 |
| CCOC(=O)CSc1nc(N)c(C#N)cc1C#N | -4.8 |
| CCOc1cc(C2Nc3ccccc3C(=O)N2Cc2ccco2)ccc1O (configuration not stated) | 18.5 |
| Cc1c(N2C(=O)CSC2c2ccccc2Cl)c(=O)n(-c2ccccc2)n1C (configuration not stated) | 8.5 |
| COc1ccc(CC(=O)N2CCCc3ccccc32)cc1OC | -6.2 |

| SMILES | displacement [%] |
| --- | --- |
| O=[N+]([O-])c1cccc(S(=O)(=O)Nc2ccc(I)cc2)c1 | 4.1 |
| O=C(Nc1cccc([N+](=O)[O-])c1)c1cc(-c2ccco2)nc2ccccc12 | 6.8 |
| Cc1ccc(S(=O)(=O)N(CCC#N)C2CCCCC2)c2nsnc12 | 5.6 |
| Cc1ccc2nsnc2c1NC(=O)c1ccccc1[N+](=O)[O-] | 0.3 |
| O=C(NCC1CCCO1)c1ccc(C(=O)NCC2CCCO2)nc1 (configuration not stated) | -1.1 |
| O=C(NC(=S)Nc1cc(Cl)ccc1Cl)c1ccco1 | 4 |
| CCC(=O)N1N=C2c3cc(OC)ccc3CCC2C1c1ccc(F)cc1 (configuration not stated) | 7.1 |
| CSc1nc2ccc(N3C(=O)c4ccccc4C3=O)cc2s1 | -4.7 |
| CCOC(=O)C1=C(c2ccccc2)N=c2s/c(=C\c3cc(OC)c(OC)c(OC)c3)c(=O)n2C1c1cccs1 (configuration not stated) | -2.3 |
| COc1ccc(CCNC(=O)c2ccc(C#CC(C)(C)O)cc2)cc1OC | -7.3 |
| CN1C(=O)C(=Cc2ccc(-c3ccccc3Cl)o2)C(=O)N(C)C1=O | 30.9 |
| O=C1CCC(=O)N1c1ccc(-c2nc3ccc(N4C(=O)CCC4=O)cc3[nH]2)cc1 | -11.9 |
| CCCCOC(=O)c1ccc(NC(=O)c2cc(Cl)ccc2[N+](=O)[O-])cc1 | 16.3 |
| O=C(O)CC/C(=N\NS(=O)(=O)c1ccccc1)c1ccccc1 | 11.7 |
| Cc1cccc(N2C(=O)NC(=O)/C(=C/c3ccc(N(C)C)c(Br)c3)C2=O)c1 | -10.2 |
| CN1CCN(CCN2CCn3c2nc2ccccc23)CC1 | -3.3 |
| O=[N+]([O-])c1ccc(-c2nc(-c3ccc(C(F)(F)F)cc3)no2)cc1 | 39.3 |
| CCSc1nnc(NC(=O)c2cccc(OC)c2)s1 | 0.5 |
| COc1cc(NC(=O)c2ccc(-c3ccc(Br)cc3)o2)ccc1NC(=O)c1ccco1 | 158 |
| O=C(CSc1nc2ccccc2[nH]1)OCN1C(=O)c2ccccc2C1=O | -11.1 |
| CCOc1ccc(N2C(=O)C(O)=C(C(=O)/C=C/c3ccccc3)C2c2ccccc2[N+](=O)[O-])cc1 (configuration not stated) | 0.7 |
| NC(=S)N/N=C(/Cc1ccccc1)c1ccc(-c2ccccc2)cc1 | 6.3 |
| COc1ccc(OC)c(C2C(C(=O)OCCc3ccccc3)=C(C)NC3=C2C(=O)CCC3)c1 (configuration not stated) | -4.8 |

| SMILES | displacement [%] |
| --- | --- |
| CN1C(=O)/C(=C\c2ccc([N+](=O)[O-])o2)SC1=S | 24.9 |
| COC(=O)c1cc(NC(=O)c2sc3cc(C)ccc3c2Cl)cc(C(=O)OC)c1 | 1.1 |
| Cc1cccc(C)c1OCCCN1CCC(C)CC1 | -13.6 |
| O=C(O)CCC(=O)NNC(=O)c1ccncc1 | 2.5 |
| O=C(N/N=C/c1cccc(Cl)c1)C(O)(c1ccccc1)c1ccccc1 | -0.3 |
| Nc1ccc(Cl)c(-c2nc3ccccc3s2)c1 | 4.5 |
| CCOC(=O)c1sc(NC(=O)c2ccc(OC)cc2)c(C(=O)OCC)c1C | 4.5 |
| Cc1ccc(C(NC(N)=O)c2ccccc2C)cc1 (configuration not stated) | 14 |
| COc1ccc(/C=N/Nc2nnc(-c3ccccc3)c(-c3ccccc3)n2)cc1 | 3.3 |
| O=C1NC(c2ccccc2)=C(c2ccc3ccccc3n2)C(c2ccc([N+](=O)[O-])cc2)N1 (configuration not stated) | 11.2 |
| Cc1ccc(Cn2c(=O)c3c(ncn3C)n(C)c2=O)cc1 | 6.8 |
| Cc1cccc(N2CCN(C(=O)c3ccc(C(C)(C)C)cc3)CC2)c1C | -12.5 |
| CCOc1ccc(N2C(=O)/C(=C/c3ccc(I)o3)C(=O)NC2=S)cc1 | 7.3 |
| O=c1oc2ccccc2nc1/C=C(\O)c1cccs1 | 61.3 |
| COc1cc(C(C2C(=O)CC(C)(C)CC2=O)C2C(=O)CC(C)(C)CC2=O)ccc1O | -9.2 |
| CC(=O)Nc1ccc(Nc2nc3ccccc3nc2NS(=O)(=O)c2ccc(Cl)cc2)cc1 | -12.5 |
| C/C(=N\NC(=O)C1CC1)c1ccccn1 | -8.1 |
| COc1ccccc1NC(=O)c1ccc(CN2CCc3ccccc3C2)cc1 | -4.8 |
| CCn1nc(C)c(Cc2c(C)nn(CC)c2C)c1C | -11.9 |
| CCOc1ccc(C(=O)Nc2ccc3c4c(cccc24)CC3)cc1[N+](=O)[O-] | 14.7 |
